# Assay results from the supplement of paper PMC8728848.
# The other results are listed elsewhere or left out.
# B1: Si Bti9 1b-HA (Solanum lycopersicum) (protein)
# chain: MFESRPRSVLSLGVFVILVYLSSVPLPVNSQCNRGCDLALASFYVWRGSNLTLISEMFSTSIADIVSYNNRDNIPNQDSVIAGTRINIPFRCDCLNDGEVLGHAFPYRVKSGDTYDLVARNYSDLTTAQWMMKFNSYPENNIPNTVNLSVVVNCSCGNSDVSKDFGLFVTYPVRAEDNLTSVASAANVSEDIIRRYNPAAVSILDIGQGIIYIPGRDRNGNFPPLPTSTDGLSGGAKAPLFFNPAFLYKVVELKLAGRSRTSGYPYDVPDYAGYPYDVPDYALEVLFQ
# Experiments:
# Test in all cases: glycan array binding signal (z-score within array); higher = stronger binding
# Details in all cases: glycan notation: IUPAC condensed, linker removed
# [1] = biological target: GlcNAc(b1-3)Gal(b1-4)GlcNAc(b1-3)Gal(b1-4)GlcNAc(b1-3)GalNAc
# Method in brief: (§1)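 Negative Z-scores can be read as non-binding. The Z-score is calculated within each array and then averaged across arrays of one protein sequence at different concentrations or buffers and across linkers. Arrays, 3228 in all, were curated from the Consortium for Functional Glycomics database and kept only where the protein sequence was available.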
# [2] = biological target: GlcNAc(b1-3)Gal(b1-4)GlcNAc(b1-3)GalNAc
# Method in brief: as §1
# [3] = biological target: GlcNAc(b1-3)Gal(b1-4)GlcNAc(b1-3)[GlcNAc(b1-3)Gal(b1-4)GlcNAc(b1-3)]GalNAc
# Method in brief: as §1
# [4] = biological target: GlcNAc(b1-3)Gal(b1-4)GlcNAc(b1-6)[Gal(b1-3)]GalNAc
# Method in brief: as §1
# [5] = biological target: GlcNAc(b1-3)Gal(b1-4)GlcNAc(b1-6)[GlcNAc(b1-3)Gal(b1-3)]GalNAc
# Method in brief: as §1
# [6] = biological target: GlcNAc(b1-3)Gal(b1-4)GlcNAc(b1-6)[GlcNAc(b1-3)]Gal(b1-4)GlcNAc
# Method in brief: as §1
# [7] = biological target: GlcNAc(b1-3)GalNAc
# Method in brief: as §1
# [8] = biological target: GlcNAc(b1-3)Man
# Method in brief: as §1
# [9] = biological target: GlcNAc(b1-3)[GlcNAc(b1-4)][GlcNAc(b1-6)]GlcNAc
# Method in brief: as §1
# [10] = biological target: GlcNAc(b1-3)[GlcNAc(b1-6)]Gal(b1-4)GlcNAc
# Method in brief: as §1
# [11] = biological target: GlcNAc(b1-3)[GlcNAc(b1-6)]GalNAc
# Method in brief: as §1
# [12] = biological target: GlcNAc(b1-4)Gal(b1-4)GlcNAc
# Method in brief: as §1
# [13] = biological target: GlcNAc(b1-4)GlcNAc
# Method in brief: as §1
# [14] = biological target: GlcNAc(b1-4)GlcNAc(b1-4)GlcNAc
# Method in brief: as §1
# [15] = biological target: GlcNAc(b1-4)GlcNAc(b1-4)GlcNAc(b1-4)GlcNAc(b1-4)GlcNAc
# Method in brief: as §1
# [16] = biological target: GlcNAc(b1-4)GlcNAc(b1-4)GlcNAc(b1-4)GlcNAc(b1-4)GlcNAc(b1-4)GlcNAc
# Method in brief: as §1
# [17] = biological target: GlcNAc(b1-4)[GlcNAc(b1-6)]GalNAc
# Method in brief: as §1
# [18] = biological target: GlcNAc(b1-6)Gal(b1-4)GlcNAc
# Method in brief: as §1
# [19] = biological target: GlcNAc(b1-6)GalNAc
# Method in brief: as §1
# [20] = biological target: GlcNAc6S(b1-3)Gal(b1-4)GlcNAc
# Method in brief: as §1
# [21] = biological target: Kdn(a2-3)Gal(b1-3)GalNAc
# Method in brief: as §1
# [22] = biological target: Kdn(a2-3)Gal(b1-3)GlcNAc
# Method in brief: as §1
# [23] = biological target: Kdn(a2-3)Gal(b1-4)Glc
# Method in brief: as §1
# [24] = biological target: Kdn(a2-3)Gal(b1-4)GlcNAc
# Method in brief: as §1
# [25] = biological target: Kdn(a2-3)Gal(b1-4)[Fuc(a1-3)]GlcNAc
# Method in brief: as §1
# [26] = biological target: Kdn(a2-6)Gal(b1-4)GlcNAc
# Method in brief: as §1
# [27] = biological target: Man(a1-2)Man(a1-2)Man(a1-3)Man
# Method in brief: as §1
# [28] = biological target: Man(a1-2)Man(a1-2)Man(a1-6)[Man(a1-3)]Man
# Method in brief: as §1
# [29] = biological target: Man(a1-2)Man(a1-3)Man
# Method in brief: as §1
# [30] = biological target: Man(a1-2)Man(a1-3)[Man(a1-2)Man(a1-6)]Man
# Method in brief: as §1
# [31] = biological target: Man(a1-2)Man(a1-3)[Man(a1-2)Man(a1-6)]Man(a1-6)[Man(a1-2)Man(a1-2)Man(a1-3)]Man
# Method in brief: as §1
# [32] = biological target: Man(a1-2)Man(a1-3)[Man(a1-2)Man(a1-6)]Man(a1-6)[Man(a1-2)Man(a1-2)Man(a1-3)]Man(b1-4)GlcNAc(b1-4)GlcNAc
# Method in brief: as §1
# [33] = biological target: Man(a1-2)Man(a1-3)[Man(a1-6)]Man(a1-6)[Man(a1-2)Man(a1-3)]Man(b1-4)GlcNAc(b1-4)GlcNAc
# Method in brief: as §1
# [34] = biological target: Man(a1-2)Man(a1-6)[Man(a1-3)]Man(a1-6)[Man(a1-2)Man(a1-2)Man(a1-3)]Man
# Method in brief: as §1
# [35] = biological target: Man(a1-2)Man(a1-6)[Man(a1-3)]Man(a1-6)[Man(a1-2)Man(a1-2)Man(a1-3)]Man(b1-4)GlcNAc(b1-4)GlcNAc
# Method in brief: as §1
# [36] = biological target: Man(a1-3)[Man(a1-6)]Man
# Method in brief: as §1
# [37] = biological target: Man(a1-3)[Man(a1-6)]Man(a1-6)[Man(a1-2)Man(a1-3)]Man(b1-4)GlcNAc(b1-4)GlcNAc
# Method in brief: as §1
binder,measurement,setting,value
B1,glycan array binding signal (z-score),[1],-0.174
same,glycan array binding signal (z-score),[2],-0.067
same,glycan array binding signal (z-score),[3],-0.032
same,glycan array binding signal (z-score),[4],-0.066
same,glycan array binding signal (z-score),[5],0.076
same,glycan array binding signal (z-score),[6],-0.43
same,glycan array binding signal (z-score),[7],-0.395
same,glycan array binding signal (z-score),[8],-0.226
same,glycan array binding signal (z-score),[9],-0.286
same,glycan array binding signal (z-score),[10],-0.542
same,glycan array binding signal (z-score),[11],-0.159
same,glycan array binding signal (z-score),[12],0.958
same,glycan array binding signal (z-score),[13],-0.081
same,glycan array binding signal (z-score),[14],-0.353
same,glycan array binding signal (z-score),[15],0.211
same,glycan array binding signal (z-score),[16],0.676
same,glycan array binding signal (z-score),[17],-0.319
same,glycan array binding signal (z-score),[18],-0.32
same,glycan array binding signal (z-score),[19],-0.229
same,glycan array binding signal (z-score),[20],0.046
same,glycan array binding signal (z-score),[21],0.029
same,glycan array binding signal (z-score),[22],-0.496
same,glycan array binding signal (z-score),[23],-0.287
same,glycan array binding signal (z-score),[24],-0.356
same,glycan array binding signal (z-score),[25],0.156
same,glycan array binding signal (z-score),[26],0.053
same,glycan array binding signal (z-score),[27],-0.4
same,glycan array binding signal (z-score),[28],-0.449
same,glycan array binding signal (z-score),[29],-0.356
same,glycan array binding signal (z-score),[30],-0.589
same,glycan array binding signal (z-score),[31],-0.638
same,glycan array binding signal (z-score),[32],0.161
same,glycan array binding signal (z-score),[33],-0.363
same,glycan array binding signal (z-score),[34],-0.276
same,glycan array binding signal (z-score),[35],-0.201
same,glycan array binding signal (z-score),[36],-0.292
same,glycan array binding signal (z-score),[37],-0.365
